# Source: the supplement of paper PMC11166567
# Some of the results follow.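 The calls were made as follows: active = permutation test q below 0.05 after Benjamini-Hochberg correction; inactive = q of 0.05 or more.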
# System: A549
# Test: mean average precision of replicate retrieval against DMSO controls (Cell Painting phenotypic activity) (fraction (0-1)); higher = stronger, more reproducible morphological phenotype distinct from DMSO; extreme values may be limits of the assay
# Conditions: 24 h; 5 µM
# 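Also: cosine similarity of well-level aggregated Cell Painting profiles ranks each compound's replicate wells against DMSO wells, four replicate plates, significance from 100,000 rank shuffles.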
row,SMILES,mean average precision
1,CCOC(=O)c1cc(C#N)c(N2CCC(C(=O)NS(=O)(=O)Cc3ccccc3)CC2)nc1C,active: 0.623
2,O=C(O)[C@@H]1CCCN1,active: 0.377
3,COc1cc2ncnc(Nc3ccc(Oc4ccccc4)cc3)c2cc1OC,active: 1
4,O=C1C(CC[S+]([O-])c2ccccc2)C(=O)N(c2ccccc2)N1c1ccccc1 (stereo not given),inactive: 0.172
5,Nc1nc(F)nc2c1ncn2[C@@H]1O[C@H](CO)[C@@H](O)[C@@H]1O,active: 1
6,CCN[C@H]1CN(CCCOC)S(=O)(=O)c2sc(S(N)(=O)=O)cc21,inactive: 0.278
7,CC(C)[C@@H]1C(=O)N(S(C)(=O)=O)[C@@H]2CCN(C(=O)/C=C/CN3CCCCC3)[C@H]21,active: 0.522
8,Cc1nc2c([nH]1)CCN(C(=O)c1ccc(NC(=O)c3ccccc3-c3ccccc3)cc1)c1ccccc1-2,active: 1
9,CC(=O)Oc1cccc2c1C(=O)c1c(OC(C)=O)cc(C(=O)O)cc1C2=O,inactive: 0.156
10,N=C(N)c1ccc2cc(OC(=O)c3ccc(N=C(N)N)cc3)ccc2c1,active: 0.684
11,COc1cc(N2CCN(C)CC2)ccc1Nc1nccc(-c2cn(C)c3cnccc23)n1,active: 1
12,CCC[C@H](Nc1nc(-c2ccc(NC(=O)NCC)c(OC)c2)ncc1C)c1cccnc1,active: 0.959
13,COc1cccc(-c2cc(F)ccc2[C@H]2Cc3nc(N)nc(C)c3C(=O)N2)n1,active: 1
14,CCCCNc1ncc2c(-c3ccc(CN4CCN(C)CC4)cc3)cn(C3CCC(O)CC3)c2n1 (stereo not given),active: 1
15,CNC(=O)c1cc(Oc2ccc(NC(=O)Nc3ccc(Cl)c(C(F)(F)F)c3)c(F)c2)ccn1,active: 0.951
16,O=C1CC[C@@H](C(=O)O)N1,active: 0.489
17,CCCCCCCC/C=C\CCCCCCCC(=O)OC(CO)CO,active: 0.463
18,Cc1cccc(Oc2nc3c(C)cccn3c(=O)c2/C=C(\C#N)c2nc3ccccc3s2)c1,active: 0.903

row,SMILES,mean average precision
1,OC[C@H]1O[C@@H](n2cnc3c(NC4CCCC4)ncnc32)[C@H](O)[C@@H]1O,inactive: 0.103
2,O=C(O)c1cc(N=Nc2ccc(S(=O)(=O)Nc3ccccn3)cc2)ccc1O,active: 0.484
3,Cc1cc2c(s1)Nc1ccccc1N=C2N1CCN(C)CC1,active: 0.767
4,CCCOc1ccc2nc(NC(=O)OC)[nH]c2c1,active: 1
5,Cc1cc(C)cc(NC(=O)Cc2ccc(OC(C)(C)C(=O)O)cc2)c1,active: 0.568
6,COc1ccc(Cl)cc1[C@]1(F)C(=O)Nc2cc(C(F)(F)F)ccc21,inactive: 0.174
7,O=C(CSc1nc2c(c(=O)n1-c1ccccc1)SCC2)Nc1ccc(-c2ccccc2)cn1,active: 0.789
8,NC(=NCc1ccccc1)NC(=O)c1nc(Cl)c(N)nc1N,active: 0.399
9,CCCCCCCN(CC)CCCC(O)c1ccc(NS(C)(=O)=O)cc1 (stereo not given),active: 0.628
10,COc1ccc(C2Sc3ccccc3N(CCN(C)C)C(=O)C2OC(C)=O)cc1 (stereo not given),active: 0.339
11,Cc1cccc(-c2[nH]c(C(C)(C)C)nc2-c2ccc3c(c2)OCO3)n1,active: 0.887
12,C/C=C(/C)C(=O)O[C@H]1C(C)=C[C@]23C(=O)[C@@H](C=C(CO)[C@@H](O)[C@]12O)[C@H]1[C@@H](C[C@H]3C)C1(C)C,active: 1
13,COc1cc(C(=O)OCCCN2CCCN(CCCOC(=O)c3cc(OC)c(OC)c(OC)c3)CC2)cc(OC)c1OC,active: 0.32
14,CCOC(=O)C1=C(COCCN)NC(C)=C(C(=O)OC)C1c1ccccc1Cl (stereo not given),active: 0.622
15,CCN1/C(=C/C(C)=O)Sc2ccc(OC)cc21,active: 1
16,COCCN1CCN(Cc2ccc(-c3n[nH]c4c3C(=O)c3c(NC(=O)NN5CCOCC5)cccc3-4)cc2)CC1,active: 1
17,COc1cccc(-c2cc(=O)c3ccccc3o2)c1N,active: 0.787

# Same assay, conditions: 48 h; 5 µM
row,SMILES,mean average precision
1,CCOC(=O)c1cc(C#N)c(N2CCC(C(=O)NS(=O)(=O)Cc3ccccc3)CC2)nc1C,active: 0.334
2,O=C(O)[C@@H]1CCCN1,active: 0.397
3,COc1cc2ncnc(Nc3ccc(Oc4ccccc4)cc3)c2cc1OC,active: 1
4,O=C1C(CC[S+]([O-])c2ccccc2)C(=O)N(c2ccccc2)N1c1ccccc1 (stereo not given),active: 0.459
5,Nc1nc(F)nc2c1ncn2[C@@H]1O[C@H](CO)[C@@H](O)[C@@H]1O,active: 1
6,CCN[C@H]1CN(CCCOC)S(=O)(=O)c2sc(S(N)(=O)=O)cc21,active: 0.616
7,CC(C)[C@@H]1C(=O)N(S(C)(=O)=O)[C@@H]2CCN(C(=O)/C=C/CN3CCCCC3)[C@H]21,active: 0.967
8,Cc1nc2c([nH]1)CCN(C(=O)c1ccc(NC(=O)c3ccccc3-c3ccccc3)cc1)c1ccccc1-2,active: 1
9,CC(=O)Oc1cccc2c1C(=O)c1c(OC(C)=O)cc(C(=O)O)cc1C2=O,active: 0.604
10,N=C(N)c1ccc2cc(OC(=O)c3ccc(N=C(N)N)cc3)ccc2c1,active: 1
11,COc1cc(N2CCN(C)CC2)ccc1Nc1nccc(-c2cn(C)c3cnccc23)n1,active: 1
12,CCC[C@H](Nc1nc(-c2ccc(NC(=O)NCC)c(OC)c2)ncc1C)c1cccnc1,active: 1
13,COc1cccc(-c2cc(F)ccc2[C@H]2Cc3nc(N)nc(C)c3C(=O)N2)n1,active: 1
14,CCCCNc1ncc2c(-c3ccc(CN4CCN(C)CC4)cc3)cn(C3CCC(O)CC3)c2n1 (stereo not given),active: 1
15,CNC(=O)c1cc(Oc2ccc(NC(=O)Nc3ccc(Cl)c(C(F)(F)F)c3)c(F)c2)ccn1,active: 1
16,O=C1CC[C@@H](C(=O)O)N1,active: 0.529
17,CCCCCCCC/C=C\CCCCCCCC(=O)OC(CO)CO,active: 0.498
18,Cc1cccc(Oc2nc3c(C)cccn3c(=O)c2/C=C(\C#N)c2nc3ccccc3s2)c1,active: 1

row,SMILES,mean average precision
1,OC[C@H]1O[C@@H](n2cnc3c(NC4CCCC4)ncnc32)[C@H](O)[C@@H]1O,active: 0.429
2,O=C(O)c1cc(N=Nc2ccc(S(=O)(=O)Nc3ccccn3)cc2)ccc1O,active: 0.863
3,Cc1cc2c(s1)Nc1ccccc1N=C2N1CCN(C)CC1,active: 0.808
4,CCCOc1ccc2nc(NC(=O)OC)[nH]c2c1,active: 1
5,Cc1cc(C)cc(NC(=O)Cc2ccc(OC(C)(C)C(=O)O)cc2)c1,active: 0.861
6,COc1ccc(Cl)cc1[C@]1(F)C(=O)Nc2cc(C(F)(F)F)ccc21,active: 0.477
7,O=C(CSc1nc2c(c(=O)n1-c1ccccc1)SCC2)Nc1ccc(-c2ccccc2)cn1,active: 1
8,NC(=NCc1ccccc1)NC(=O)c1nc(Cl)c(N)nc1N,active: 0.764
9,CCCCCCCN(CC)CCCC(O)c1ccc(NS(C)(=O)=O)cc1 (stereo not given),active: 1
10,COc1ccc(C2Sc3ccccc3N(CCN(C)C)C(=O)C2OC(C)=O)cc1 (stereo not given),active: 1
11,Cc1cccc(-c2[nH]c(C(C)(C)C)nc2-c2ccc3c(c2)OCO3)n1,active: 1
12,C/C=C(/C)C(=O)O[C@H]1C(C)=C[C@]23C(=O)[C@@H](C=C(CO)[C@@H](O)[C@]12O)[C@H]1[C@@H](C[C@H]3C)C1(C)C,active: 1
13,COc1cc(C(=O)OCCCN2CCCN(CCCOC(=O)c3cc(OC)c(OC)c(OC)c3)CC2)cc(OC)c1OC,active: 0.794
14,CCOC(=O)C1=C(COCCN)NC(C)=C(C(=O)OC)C1c1ccccc1Cl (stereo not given),active: 1
15,CCN1/C(=C/C(C)=O)Sc2ccc(OC)cc21,active: 1
16,COCCN1CCN(Cc2ccc(-c3n[nH]c4c3C(=O)c3c(NC(=O)NN5CCOCC5)cccc3-4)cc2)CC1,active: 1
17,COc1cccc(-c2cc(=O)c3ccccc3o2)c1N,active: 1
